Source: the supplement of paper PMC3334620
Over roughly 33,000 sequences, “E-score (-0.5 to 0.5)” has its median near -0.016; the highest 2% begin near 0.32. The list shows a part of the results.

Molecular target: T1, Stp1 (UniProt B3LFK1)
T1 sequence: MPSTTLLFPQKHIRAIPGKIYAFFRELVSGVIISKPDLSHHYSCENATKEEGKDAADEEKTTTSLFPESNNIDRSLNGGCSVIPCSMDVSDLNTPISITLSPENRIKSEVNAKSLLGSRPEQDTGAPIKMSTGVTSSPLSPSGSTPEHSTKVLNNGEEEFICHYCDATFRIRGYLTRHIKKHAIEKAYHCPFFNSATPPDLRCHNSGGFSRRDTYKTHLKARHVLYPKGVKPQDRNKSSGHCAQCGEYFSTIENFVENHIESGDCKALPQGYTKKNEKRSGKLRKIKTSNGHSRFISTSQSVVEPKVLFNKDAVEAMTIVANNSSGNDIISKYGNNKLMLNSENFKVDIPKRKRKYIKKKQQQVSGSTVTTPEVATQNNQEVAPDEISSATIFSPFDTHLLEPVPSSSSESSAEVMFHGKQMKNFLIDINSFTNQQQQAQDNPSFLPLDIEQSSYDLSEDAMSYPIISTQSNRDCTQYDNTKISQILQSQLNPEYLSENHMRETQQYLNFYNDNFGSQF
Test: PBM E-score (8-mer binding enrichment) (E-score (-0.5 to 0.5)); higher = stronger / more preferred TF binding; most listed sequences are background and not binding sites
Settings: protein concentration: 200 nM; construct: GST-full length
Outline: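 Yeast transcription factors, full-length or as DNA-binding domains, were expressed with a GST tag using PURExpress in vitro transcription/translation. At about 100-200 nM they were applied to universal all-10-mer Agilent arrays, double-stranded by primer extension on fresh or once-stripped slides. Fluorescent anti-GST detected bound protein, and masliner normalised the scans. E-scores for ungapped eight-base words, pooled with reverse complements, came from the Universal PBM Analysis Suite.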

Sequence | PBM E-score
CCACGTGG | -0.0863
AGACGCAC | -0.116
AGATCCTA | 0.0297
CCTCGCCA | -0.171
GGCGGCTA | 0.207
GTGGTCGA | -0.309
AACACGGG | 0.116
GGGTCATA | -0.281
ACAAATCC | -0.00662
CCGTAAGC | -0.0535
AAGCAAGT | -0.0154
CATCTACA | 0.00704
ATCCAAGC | -0.164
ATAGACTA | -0.0535
CCCACTAC | -0.0864
AAGACTAC | -0.246
GCATCAAA | 0.222
GACTGGCC | -0.288
CCACGTGC | 0.215
ACTCATGC | -0.00784
ACTCTTAA | -0.0998
ACACTCAC | 0.0186

Sequence | PBM E-score
AACCTGCG | -0.0358
TAACGGCA | 0.31
CCGAGTCG | -0.245
AAGTGGTG | -0.155
CAGCCAAA | 0.17
CGCTTTCC | -0.108
ATTAGCGG | 0.0139
AAATTGAG | 0.00466
CGTTTAGC | 0.112
GAGTACAC | 0.00808
CTAGGTTA | 0.00212
ACAGGTCT | -0.29
CATAAACA | 0.186
GTGGAAAC | 0.0392
CATCGGAA | 0.0078
AGCTAATA | 0.103
AATGCACA | 0.182
AACCCTTG | -0.171
ATCAGGCG | -0.0222
ATAACCGC | 0.112
ATGCCGCG | 0.475
CTTTAGTC | -0.0205

Sequence | PBM E-score
GAGGTAGA | -0.255
CCTCATCG | -0.077
CGAATGCC | 0.271
CTGTCAGC | -0.024
CGCAACCC | -0.1
ACTACTGG | -0.202
ATCGAGGG | -0.0625
GACTGGAC | -0.329
GCCAGTAC | -0.156
CTAGGGGC | -0.298
CTTAAACA | 0.0992
CTAGACTA | -0.133
CCTGGCCA | -0.332
GCTAGAAC | -0.13
ATCGTCGA | -0.0508
AGGTCAAC | -0.197
GGGTGCAC | -0.181
CCAGATCA | 0.102
CCTGGAAC | -0.248
ATAATACC | 0.0966
GTCTCTCA | -0.00698
GATGCGGA | 0.104

Sequence | PBM E-score
CGTCCGCC | 0.0563
AAATGTTA | -0.0138
CAAATTAG | 0.0851
GGTAATGA | -0.0239
GGCTGTAC | -0.0299
ATCGACCC | 0.0335
GGGCTGCA | -0.257
AAGGATGG | -0.00811
CGAATGCG | 0.0683
TAGTCGCA | -0.118
ACTGTCCC | -0.158
AAGAGGGC | -0.0547
ACGATCCT | -0.246
AACGCTAT | -0.0579
CTGATTTC | 0.0319
CAGGGCCA | -0.177
TAATAAAA | 0.257
GCCAAAAC | 0.00035
CACACCCG | -0.0776
CTCAGCCA | -0.145
